Experimental data taken from PubChem BioAssay AID686979 (National Center for Advancing Translational Sciences (NCATS), 2013).
Screen size: about 420,000 compounds; about 50,000 (12%) were called active. This list was built around the results that the source calls inconclusive (neither active nor inactive); the mix of calls is not that of the screen. The call rests on the fitted dose curve; in most records, active means well fitted inhibition curve with a large enough effect; inconclusive means small, poorly fitted or top-dose-only effect; inactive means flat fitted curve, though single readings scatter. Potencies of inconclusive entries are left out as doubtful fits.

assay: qHTS for Inhibitors of human tyrosyl-DNA phosphodiesterase 1 (TDP1): qHTS in cells in presence of CPT; conditions: chicken DT40 Tdp1-/-;hTDP1 cells + 20 nM CPT, ATP luminescence, 48 h; activity change, negative = growth inhibition: at 46.2 µM (top of the series) unless noted; further: nearly all actives have a fitted effect of over 55% in size
Procedure, shortened: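 Cell growth measured by CellTiter-Glo luminescence after a minimum 48 h, 37 C compound exposure with 20 nM CPT in Tdp1-knockout DT40 cells stably expressing hTDP1, seeded 400/well; qHTS titration format.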
On the % scale 0 is the no-effect control and ±100 the full control effect; potency means the concentration at half of the fitted maximal effect; tags describe the fitted curve by direction and shape.

Structure (SMILES)	Potency	activity change, negative = growth inhibition
O=C(c1ccc2c(c1)OCO2)C1CCCN(Cc2cn[nH]c2-c2cccc(F)c2)C1 (stereo not drawn)	inconclusive [inhibitor, partial curve]	
CCOC(=O)c1c[nH]c2c(Cl)c(Cl)ccc2c1=O	inconclusive [inhibitor, single point]	
CCOC(=O)[C@H]1[C@H]2COc3ccc(Cl)cc3[C@@H]2N2C(=O)CN(Cc3ccco3)C(=O)[C@@]12C	active: 25.9 µM	
O=C(COc1ccccc1F)NNC(=O)Cn1c(=O)cnc2ccccc21	inactive	
O=C(NCc1nnnn1-c1ccc(Cl)cc1)c1ccc([N+](=O)[O-])o1	active: 18.4 µM	
COCCCn1c(SCc2cccc(C(F)(F)F)c2)nc2cc(OC)c(OC)cc2c1=N	inconclusive [inhibitor, partial curve]	
CCOc1cc(N2CCOCC2)c(OCC)cc1NC(=O)c1ccc(C)cc1	inconclusive [inhibitor, partial curve]	
COc1ccccc1-c1cc(C(=O)Nc2sc3c(c2C#N)CCCC3)no1	inconclusive [inhibitor, single point]	
O=c1n(-c2cccc(Cl)c2)c(=O)n2n1CCC2	inactive	
Brc1ccc(Nc2ncnc3[nH]ncc23)cc1	inactive	
COc1ccc(OC)c(NC(=O)CSc2ccnc(=O)[nH]2)c1	inactive	
Cc1ccc(C2CC(c3ccc(NS(C)(=O)=O)cc3)=NN2C(=O)c2ccco2)cc1 (stereo not drawn)	inactive	
COc1ccc(NC(=O)c2c(NCc3ccc(C)o3)sc3c2CCC(C)C3)c(OC)c1 (stereo not drawn)	active: 20.6 µM	
COc1ccccc1NC(=O)COC(=O)CCC(=O)c1cccs1	inactive	
O=C(COc1ccccc1C(=O)Nc1ccccc1F)Nc1ccc(Br)cc1	inconclusive [inhibitor, single point]	
COc1ccc(F)cc1S(=O)(=O)Nc1cc2c3c(c1)CCN3C(=O)CC2	inactive	
CN1CCN(NC(=O)CN(C)S(=O)(=O)c2cc(Cl)ccc2Cl)CC1	inactive	
Cc1nc2ccccc2c2oc(C(=O)NCCN3CCN(C)CC3)cc12	inconclusive [inhibitor, partial curve, poor fit]	
CC1Sc2ccc(C(=O)NCc3ccccc3Cl)cc2NC1=O (stereo not drawn)	inconclusive [inhibitor, single point]	
CC(C)CCOc1ncnc2c1sc1nc3c(cc12)CSC(C)(C)C3	inconclusive [inhibitor, single point]	
COc1ccc(N(CC(=O)NCCc2ccc(OC)c(OC)c2)S(=O)(=O)c2ccc(OC)c(OC)c2)cc1		inconclusive: -30.3% [inhibitor]
COC(=O)c1cc(N=Nc2sc(N)nc2C)cc(C(=O)OC)c1	inconclusive [inhibitor, single point]	
COc1ccc(-c2nnc(NC(=O)c3ccccc3[N+](=O)[O-])s2)c(OC)c1	inactive	
CC(=O)Nc1cccc(-c2ccnc3c2CC(C(=O)NCC2CC2)O3)c1 (stereo not drawn)	inconclusive [inhibitor, single point]	

Structure (SMILES)	Potency	activity change, negative = growth inhibition
COc1ccccc1N1CCN(S(=O)(=O)c2c(C)sc3ncn(CC(=O)Nc4cccc(Cl)c4)c(=O)c23)CC1	inconclusive [inhibitor, single point]	
C=CCc1ccccc1OCC(O)CN1CCOCC1 (stereo not drawn)	inactive	
O=C(CN1CCC(C(=O)c2ccc(F)cc2)CC1)Nc1ccc(F)cc1	inconclusive [inhibitor, partial curve]	
CSc1ccc(CNCCCSc2ncccn2)cc1	inconclusive [inhibitor, partial curve]	
CCOCCCN(C(=O)Cn1nnc(-c2ccc(OC)c(OC)c2)n1)C(C(=O)NCC1CCCO1)c1ccc(F)cc1 (stereo not drawn)	inconclusive [inhibitor, partial curve]	
COc1ccc(C2CC(c3c(O)n(C4CCCCC4)c(=O)[nH]c3=O)=Nc3ccccc3S2)cc1 (stereo not drawn)	inactive	
CCCN(CCC)C(=O)Cn1c(=O)c2sccc2n2c(=S)sc(-c3ccccc3)c12	inactive	
CCOc1cc(N2CCOCC2)c(OCC)cc1NC(=O)COc1cccc2cccnc12	active: 10.3 µM	
CCN1CCN(C(=O)c2ccc3c(Cl)c4c(nc3c2)CCCC4)CC1	inconclusive [inhibitor, single point]	
NC(=O)C[C@H](N)c1cn([C@@H](CC(N)=O)C(=O)N2CCNCC2)nn1	inactive	
COC(=O)c1c(-c2ccc(Cl)cc2)noc1N1CCN(c2ccc(OC)cc2)CC1	active: 23.1 µM	
CC(=O)c1ccc(Oc2cc(C)nc(-n3nc(C)cc3C)n2)cc1	active: 0.731 µM	
CC(SCc1ccccc1)C(=O)Nc1ccccc1 (stereo not drawn)	inactive	
C=C(C)C(=O)N1CC2(CC(c3cccc(NC(=O)COc4ccc(Cl)cc4)c3)=NO2)C[C@@H]1C(N)=O (stereo partly drawn)	inconclusive [inhibitor, single point]	
O=C(NN=Cc1ccc2c(c1)CCN2)c1cccs1	inconclusive [inhibitor, partial curve]	
Cc1cccc(NS(=O)(=O)c2ccc([N+](=O)[O-])cc2)n1	inactive	
COc1ccccc1C=C(C(=O)c1ccccc1)c1ccccc1	inactive	
COC(=O)C1=CC(C(=O)c2cccs2)=NN(c2ccc(OC)cc2)C1C(=O)OC (stereo not drawn)	inconclusive [inhibitor, single point]	
CCCCC(=O)Nc1ccc(C(=O)Nc2cc(C(F)(F)F)ccc2Cl)cc1	inconclusive [inhibitor, single point]	
CCOC(=O)C(=Cc1ccc2c(c1)OCO2)c1ccccc1	inactive	
COc1cccc(C(=O)N2CCC[C@@H]2C(=O)N2CCC[C@@H]2C(=O)NCc2ccccc2Cl)c1	inactive	
COc1cc(NC(=O)[C@@H]2CCCN2S(=O)(=O)c2cccc3cccnc23)cc(OC)c1OC	inactive	
CCC(c1nnnn1CCC(C)C)N1CCC(C(N)=O)CC1 (stereo not drawn)	inactive	
CC(C)N(C(=O)N1CCC(c2nc(-c3ccncc3)no2)CC1)C(C)C	inconclusive [inhibitor, single point]	
